For 39 compounds, AC50 results are on record in PubChem BioAssay (NCATS).

Values joined by “and” are separate entries in the source; they are usually repeats but may differ in a detail not shown here. Equal entries are not always repeated. The list shows a part of the results. Shown are side measurements of this screen, not its main read-out; they come without a call. Compounds called inactive in the main read-out are mostly missing here. The note in brackets gives the kind of curve behind each potency; many fits are weak.
Tags tell the direction and shape of the fitted curve.

The nature of one test: qHTS Assay for Lipid Storage Modulators (AID 1519). The note with it: Drosophila S3 cells, BODIPY lipid droplet/cell ratio, laser cytometry; measured here: cell number channel AC50; cells loaded with oleic acid. The essentials:
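Cells seeded at 5,000 per well were treated with compounds over a concentration series and loaded with oleic acid (400 uM, as added). Lipid droplet fluorescence (488 nm excitation, 500-530 nm channel) was read by laser-scanning cytometry and normalized to 20 uM Triacsin C.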
On the technique in general: qHTS replaces the single test concentration by a dilution series.
As a reminder, the AC50 is the concentration at which the activity in the assay is half-maximal. Consider `COc1ccc(-c2nc3cnc(N(C)C)nc3n(C[C@H]3CCCO3)c2=O)cc1`, for which the AC50 was 0.708 µM [rising, partial curve].

As to `COc1cccc(-c2nc(N(C)C)c3ccccc3n2)c1`, the AC50 is 1.78 µM [rising, full curve].

In the case of `COc1cc2c(cc1OC)-c1cc3nc4ccccc4nc3n1C(C)(C)C2`, the AC50 is 3.98 µM [rising, full curve]. On to `COc1ccc(CNc2ncnc3ccc(-c4ccccc4C#N)cc23)c(OC)c1`, for which the AC50 is 3.55 µM [rising, full curve, poor fit]. In the case of `CC(=O)c1ccc[nH]1`, the AC50 was 7.08 µM [rising, single point]. Consider `CN(C)CCCCSC(=N)N`, for which the AC50 is 0.0316 µM [falling, full curve, poor fit].

Consider `CN(C)c1ncc2nc(-c3ccccc3)c(=O)n(C3CC3)c2n1`, for which the concentration at half-maximal activity (AC50) is 1.58 µM [rising, partial curve]. On the same count and under the same terms, the same measure for `COc1ccccc1CNc1nc(-c2cccc(C#N)c2)nc2ccccc12`: 0.1 µM [rising, full curve, poor fit]. For `COc1ncc2nc(CCc3ccccc3)c(=O)n(Cc3ccc(F)cc3)c2n1`, the half-maximal activity concentration (AC50) is 1.41 µM [rising, full curve]. For the compound `COc1ccc(CNc2ncncc2-c2ccccc2C(F)(F)F)c(OC)c1`, the half-maximal activity concentration (AC50) is 2.51 µM [rising, full curve, poor fit].

In the case of `CN(Cc1ccco1)c1ncnc2ccc(-c3ccoc3)cc12`, the AC50 is 3.55 µM [rising, partial curve].

Turning to `CN1CCc2cc3c(cc2[C@@H]1[C@@H]1C(=O)Oc2c1ccc1c2OCO1)OCO3`, the AC50 is 14.1 µM [rising, partial curve, poor fit]. Same read-out and setting: the same measure for `CCCNC(=O)N1N=C(c2ccc(N)cc2)c2cc3c(cc2[C@H]1C)OCO3`: 0.398 µM [rising, full curve]. Take `O=c1c(-c2cccc(Cl)c2)nc2cncnc2n1Cc1ccc(F)cc1`: the AC50 was 5.62 µM [rising, partial curve, poor fit]. On the same count and under the same terms, the same measure for `COc1cccc(Cn2c(=O)c(C)nc3cnc(Oc4cccc(Cl)c4)nc32)c1`: 0.398 µM [rising, full curve, poor fit]; for `COc1ccc(Oc2ncc3nc(-c4cc(F)cc(F)c4)c(=O)n(C4CC4)c3n2)cc1`: 2 µM [rising, partial curve]; for `N#Cc1cccc(-c2nc(NCc3ccccc3)c3ccccc3n2)c1`: 2.51 µM [rising, full curve, poor fit].

Take `CC1(C)CC[C@]2(C(=O)O)CC[C@]3(C)C(=CCC4[C@@]5(C)CC[C@H](O)C(C)(C)[C@@H]5CC[C@]43C)C2C1` (stereo partly drawn): the half-maximal activity concentration (AC50) is 15.8 µM [rising, partial curve, poor fit].

With `Cn1c(-c2nc(-c3ccccc3)cs2)nc2ccccc21`, the AC50 was 1.26 µM [rising, full curve]. For the compound `COc1cccc(Nc2ncc3nc(-c4cccs4)c(=O)n(CCC#N)c3n2)c1`, the AC50 was 5.01 µM [rising, partial curve].

Regarding `COc1ccc(CNc2cc(-c3ccccc3OC)ncn2)c(OC)c1`, the half-maximal activity concentration (AC50) is 2.24 µM [rising, full curve, poor fit]. Same read-out and setting: the value for `COc1ccc(C(=O)N2CCC3(CCCN(c4cccc(-c5ccccc5)c4)C3)CC2)cc1` was 2.82 µM [rising, partial curve, poor fit]. The same measure, in the same setting: the value for `COc1ccc(Oc2ncc3nc(-c4cc(F)cc(F)c4)c(=O)n(C[C@H]4CCCO4)c3n2)cc1` was 3.55 µM [rising, single point]; that for `COc1cccc(-c2cncnc2NCCc2c[nH]c3ccc(OC)cc23)c1` was 0.447 µM [rising, full curve]. Turning to `N#Cc1cccc(NC(=O)N2CCCC3(CCN(C(=O)c4cccc(F)c4)CC3)C2)c1`, the half-maximal activity concentration (AC50) was 0.141 µM [rising, full curve, poor fit]. `CCCCOc1cc(C[C@@H]2CNC(=O)N2)ccc1OC`: the half-maximal activity concentration (AC50) is 15.8 µM [rising, partial curve, poor fit]. On the same count and under the same terms, the value for `C=C(CO)C1Cc2c(ccc3c(=O)c4c(oc23)COc2cc(OC)c(OC)cc2-4)O1` (stereo not drawn) was 6.31 µM [rising, full curve, poor fit]; that for `Cn1cc(-c2nc3cncnc3n(CCN)c2=O)c2ccccc21` was 0.282 µM [rising, full curve, poor fit].

Still in this test, the particulars now being: Drosophila S3 cells, BODIPY lipid droplet/cell ratio, laser cytometry; measured here: lipid (BODIPY) channel AC50; cells loaded with oleic acid.
As for `c1cncc(-c2nccc(NCc3cccs3)n2)c1`, the AC50 was 0.631 µM [rising, full curve, poor fit]. On to `O[C@H](CCCN1CCN(c2ncc(F)cn2)CC1)c1ccc(F)cc1`, for which the AC50 is 14.1 µM [rising, partial curve, poor fit]. With `COc1cccc(Nc2ncc3nc(-c4ccccc4)c(=O)n(C)c3n2)c1`, the half-maximal activity concentration (AC50) is 1.58 µM [rising, partial curve, poor fit].

In the case of `CO[C@]12C[C@@H](COC(=O)c3cncc(Br)c3)CN(C)[C@@H]1Cc1cn(C)c3cccc2c13`, the half-maximal activity concentration (AC50) is 14.1 µM [rising, partial curve]. As to `COC(=O)C1OC(=O)C2OC23[C@]2(C)C(OC(C)=O)CC4C(C)(C)C(=O)CC[C@]4(C)C2CC[C@@]13C` (stereo partly drawn), the concentration at half-maximal activity (AC50) is 1.78 µM [rising, partial curve, poor fit]. Still for that read-out and setting: the same measure for `COc1cc(/C=C/C(=O)N2CCCCC2=O)cc(OC)c1OC`: 14.1 µM [rising, partial curve, poor fit]; for `COCCn1c(=O)c(-c2ccc(OC)cc2)nc2cnc(N3CCNCC3)nc21`: 0.794 µM [rising, partial curve, poor fit]. On the same count and under the same terms, the value for `CCCCCCc1c(C[C@H](N)C(=O)O)o[nH]c1=O` was 35.5 µM [rising, single point] and 14.1 µM [rising, single point]; that for `COc1cccc(-c2ccc3ncnc(N4CCOCC4)c3c2)c1` was 8.91 µM [rising, partial curve, poor fit]; that for `O=C(Cc1ccc(Cl)cc1)c1c(O)cc(O)cc1O` was 3.98 µM [rising, full curve, poor fit].

On to `CC(N)(C(=O)O)c1ccc(C(=O)O)cc1` (stereo not drawn), for which the concentration at half-maximal activity (AC50) is 0.112 µM [falling, full curve, poor fit]. As for `COc1ccc(-c2nc3cnc(N(C)C)nc3n(C[C@H]3CCCO3)c2=O)cc1`, the AC50 is 0.794 µM [rising, partial curve].

On to `COc1cccc(-c2nc(N(C)C)c3ccccc3n2)c1`, for which the AC50 was 2 µM [rising, full curve].

For `COc1cc2c(cc1OC)-c1cc3nc4ccccc4nc3n1C(C)(C)C2`, the concentration at half-maximal activity (AC50) was 4.47 µM [rising, full curve]. The same measure, in the same setting: the same measure for `COc1ccc(CNc2ncnc3ccc(-c4ccccc4C#N)cc23)c(OC)c1`: 3.55 µM [rising, full curve, poor fit]; for `CC(=O)c1ccc[nH]1`: 6.31 µM [rising, single point]; for `CN(C)CCCCSC(=N)N`: 0.0398 µM [falling, full curve, poor fit]. On the same count and under the same terms, the same measure for `CN(C)c1ncc2nc(-c3ccccc3)c(=O)n(C3CC3)c2n1`: 0.708 µM [rising, full curve, poor fit]; for `COc1ccccc1CNc1nc(-c2cccc(C#N)c2)nc2ccccc12`: 0.0501 µM [rising, full curve, poor fit]; for `COc1ncc2nc(CCc3ccccc3)c(=O)n(Cc3ccc(F)cc3)c2n1`: 1 µM [rising, full curve, poor fit]. `COc1ccc(CNc2ncncc2-c2ccccc2C(F)(F)F)c(OC)c1`: the AC50 is 1.78 µM [rising, full curve, poor fit]. Same read-out and setting: the value for `CN(Cc1ccco1)c1ncnc2ccc(-c3ccoc3)cc12` was 3.55 µM [rising, partial curve]; that for `CN1CCc2cc3c(cc2[C@@H]1[C@@H]1C(=O)Oc2c1ccc1c2OCO1)OCO3` was 15.8 µM [rising, partial curve, poor fit]; that for `CCCNC(=O)N1N=C(c2ccc(N)cc2)c2cc3c(cc2[C@H]1C)OCO3` was 0.316 µM [rising, full curve]. Same read-out and setting: the value for `O=c1c(-c2cccc(Cl)c2)nc2cncnc2n1Cc1ccc(F)cc1` was 1.78 µM [rising, partial curve]; that for `COc1cccc(Cn2c(=O)c(C)nc3cnc(Oc4cccc(Cl)c4)nc32)c1` was 0.1 µM [rising, full curve]. As for `COc1ccc(Oc2ncc3nc(-c4cc(F)cc(F)c4)c(=O)n(C4CC4)c3n2)cc1`, the concentration at half-maximal activity (AC50) was 2.51 µM [rising, partial curve].

Turning to `N#Cc1cccc(-c2nc(NCc3ccccc3)c3ccccc3n2)c1`, the AC50 was 2.51 µM [rising, full curve, poor fit].

`CC1(C)CC[C@]2(C(=O)O)CC[C@]3(C)C(=CCC4[C@@]5(C)CC[C@H](O)C(C)(C)[C@@H]5CC[C@]43C)C2C1` (stereo partly drawn): the AC50 was 17.8 µM [rising, partial curve, poor fit].

For `Cn1c(-c2nc(-c3ccccc3)cs2)nc2ccccc21`, the concentration at half-maximal activity (AC50) was 0.282 µM [rising, full curve]. On the same count and under the same terms, the same measure for `COc1cccc(Nc2ncc3nc(-c4cccs4)c(=O)n(CCC#N)c3n2)c1`: 39.8 µM [falling, single point]; for `COc1ccc(CNc2cc(-c3ccccc3OC)ncn2)c(OC)c1`: 2.51 µM [rising, full curve]. Same read-out and setting: the same measure for `COc1ccc(C(=O)N2CCC3(CCCN(c4cccc(-c5ccccc5)c4)C3)CC2)cc1`: 2.51 µM [rising, partial curve, poor fit].

As to `COc1ccc(Oc2ncc3nc(-c4cc(F)cc(F)c4)c(=O)n(C[C@H]4CCCO4)c3n2)cc1`, the half-maximal activity concentration (AC50) is 4.47 µM [rising, single point]. Still for that read-out and setting: the value for `COc1cccc(-c2cncnc2NCCc2c[nH]c3ccc(OC)cc23)c1` was 0.447 µM [rising, full curve].
